Laboratory results taken from article PMC12136788.
This is one part of the list.

T1: UNK ZnF1-6 (called full-length) (human, UniProt Q9C0B0 30-357)
T1 sequence: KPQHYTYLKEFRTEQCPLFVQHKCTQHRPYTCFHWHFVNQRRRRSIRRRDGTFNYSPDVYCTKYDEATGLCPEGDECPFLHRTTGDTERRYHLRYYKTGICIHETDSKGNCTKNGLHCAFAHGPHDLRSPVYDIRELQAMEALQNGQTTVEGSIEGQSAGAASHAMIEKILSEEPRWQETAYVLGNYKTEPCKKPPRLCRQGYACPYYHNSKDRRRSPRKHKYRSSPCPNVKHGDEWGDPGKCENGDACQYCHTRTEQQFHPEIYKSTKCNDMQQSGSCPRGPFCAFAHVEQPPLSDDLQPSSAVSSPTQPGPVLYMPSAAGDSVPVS

B1: chr2:27243795:27243896:+|3pUTR|ENSG00000084774|unk|FALSE|unique (ssRNA)
RNA: GGGAGUUCUACAGUCCGACGAUCACUUAAUAAACAGCCGAGCUGUCCCUUGAUGCUGAGUGUAGUAGAACAGAGCUUUCUUUUAGAAAAUUGAGCAGAUUCCCAAAUUAUAAGAGCAGCCUCACCAGGCAGGGCUCUGGCUAGCAACAGAGGAUUGAGCAUCA
B2: chr14:103519669:103519777:-|3pUTR|ENSG00000166165|unk|total|mutant (ssRNA)
RNA: GGGAGUUCUACAGUCCGACGAUCCUGAUGUUCGCCGUCUGGCGAGCCCUCCGCCUUGCUGCCGAGACUUCCGUCACCCUUGGCCGAGUUUAUUUUUUUGAUGGCUAAGAUACUGCUGAUGCUGAAAUAAACCCGGGUUUUGGCCAACAGAGGAUUGAGCAUCA
B3: chr19:3536616:3536717:+|3pUTR|ENSG00000105325|msi1|total|mutant (ssRNA)
RNA: GGGAGUUCUACAGUCCGACGAUCACCGCCGCAGGGCCAGGCGGACGGCGUGAGGUUUGUGUUGGGGCUGGUUCUGCCCAUGCCCGGGGGUGGGGGAGCUCCCAGGACAGACCAGCCUUGUUUCUCAUGUAAUGCAGUGACGCUCAACAGAGGAUUGAGCAUCA
B4: chr17:63423787:63423888:+|3pUTR|ENSG00000170921|msi1|total|mutant (ssRNA)
RNA: GGGAGUUCUACAGUCCGACGAUCCUAACUCAAGCCCCAGCCUCUUUCCACACUCCCUGAUACCUAAGGACUGCUUUCUCAGCCCGACCAGGGUGGGCAUCAGCGACGCCUUCUCAGCCCGACCAGGGCCGGCAUCAGCGUCCUCAACAGAGGAUUGAGCAUCA
B5: chrX:133301433:133301604:-|3pUTR|ENSG00000076716|msi1|total|mutant (ssRNA)
RNA: GGGAGUUCUACAGUCCGACGAUCUUGUUUUUCUUGGGGGAUGGGGUGGGGUGGGAGCCGGCCGAGCUGAGAAUACUACAUCUCCGUGGUGACCUUCCGCCACGUGGGUGAAGUGGCAAAGGCCAUGGCCAUAUCUGUUGUCCCCAACAGAGGAUUGAGCAUCA
B6: ENSG00000070961:be:win_4301|3pUTR|ENSG00000070961|bound_else_gene|NA|bound_elsewhere_windowed (ssRNA)
RNA: GGGAGUUCUACAGUCCGACGAUCGCUAAUACUAAUAGCCAAAUAGAUAACACUAAUGCUUUGUUUAAAAAAACGAAAAAAACAAAACAAAACAAAAAAACAUGAGCAGUGGUGUUCUAAUGAAGUUAUGACAUCUGUCCUAAUCAACAGAGGAUUGAGCAUCA
B7: chr5:113014749:113014850:+|3pUTR|ENSG00000172795|msi1|total|mutant (ssRNA)
RNA: GGGAGUUCUACAGUCCGACGAUCUAAAAAUCCUUUUUUACAGUGGUAUCCACAAAAUACUUCUCUGCUUAUAAAUGUUAUUGCCGAAAUCUUUAUUCUGUGCCGGCCGCCUAUUUAAUUGGGUUCCACUGAACCUCAUGGGACCAACAGAGGAUUGAGCAUCA
B8: chr5:151662667:151662729:-|3pUTR|ENSG00000113140|msi1_unk|FALSE|overlapping (ssRNA)
RNA: GGGAGUUCUACAGUCCGACGAUCGCCAGGCUGUUUCAGCCAGGAAGGCCAAAAUCAAGAGUGAGAUGUAGAAAGUUGUAAAAUAGAAAAAGUGGAGUUGGUGAAUCGGUUGUUCUUUCCUCACAUUUGGAUGAUUGUCAUAAGCAACAGAGGAUUGAGCAUCA
B9: chr5:10264816:10264917:+|3pUTR|ENSG00000150753|msi1_unk|FALSE|overlapping (ssRNA)
RNA: GGGAGUUCUACAGUCCGACGAUCAAUGGAUGUCUCGUGAUGCAUCUACAGUUAUUUAUUGUUACAUCCUUUUCCAGACACUGUAGAUGCUAUAAUAAAAAUAGCUGUUUGGUAACCAUAGUUUCACUUGUUCAAAGCUGUGUACAACAGAGGAUUGAGCAUCA
B10: chr17:7656804:7656905:+|3pUTR|ENSG00000129244|unk|FALSE|unique (ssRNA)
RNA: GGGAGUUCUACAGUCCGACGAUCGCAUGUGCCACCAUGCCCGGCUAAUUUCUUUCUUUCUUUUUUUUUUUUUUUGCAUUUUUUAGUAGAGAUGGGGGUUUCUCCUUGUUGGUCAGGCUGGUCUCGAACUCCCGACCUCAGGUGCAACAGAGGAUUGAGCAUCA
B11: chr17:58089516:58089557:+|3pUTR|ENSG00000264364|msi1_unk|total|mutant (ssRNA)
RNA: GGGAGUUCUACAGUCCGACGAUCGAAGGCUGCUUUAUGUUUAUUUUUCAAGACUUUAAAAAUAUUUUUUGGUUGUAUUGCACCCGGAAAUCUCUCCCACCUCUCCCUUUUCUCUUUCUUUCCCUAUACAAAAUAAAAGGCCCACAACAGAGGAUUGAGCAUCA
B12: chr7:50445662:50445763:-|CDS|ENSG00000132436|msi1|FALSE|unique (ssRNA)
RNA: GGGAGUUCUACAGUCCGACGAUCGUUAUCUCAACGGGGAGAUGGUGAGCAUGAAUCUUCUAGAAGGAUAAAAACAGAAUUUUUAGUUCAAUUAGAUGGAGCAACAACAUCUUCUGAAGAUCGUAUCCUAGUGGUGGGAGCAACCAACAGAGGAUUGAGCAUCA
B13: ENSG00000107863:be:win_4101|CDS|ENSG00000107863|bound_else_gene|NA|bound_elsewhere_windowed (ssRNA)
RNA: GGGAGUUCUACAGUCCGACGAUCUUUACUCACCAACAUUGGAAGGACAGGAGUCUCCCCAGGAGAUGUAUCAGAUUCAGCUACUAGUGACUCAACAAAAUCUAAGGGUUCUUGGGGAUCUGGAAAGGAUCAGUAUAGCAGGGACAACAGAGGAUUGAGCAUCA
B14: chr10:84150713:84150851:+|CDS|ENSG00000165678|unk|total|mutant (ssRNA)
RNA: GGGAGUUCUACAGUCCGACGAUCUCUUCCACCUACCACCGUGGCUGGUGCCACUCUUUACUCAGUGGCAAUGUACGGUGGAUCCGUUCUUUUCAGCAUGUUCCUUCUGUAUGAUACCCAGAAAGUAAUCAAGCGUGCAGAAGUCAACAGAGGAUUGAGCAUCA
B15: chr11:75587191:75587292:-|CDS|ENSG00000171533|unk|total|mutant (ssRNA)
RNA: GGGAGUUCUACAGUCCGACGAUCACAGCCUCCAAAGAAUCAAGGUCGUACCGUCCCUGAACCUCUGAAGAAUCAAGUUCCUACCGUCCCAGUGCCUCUGAAGGAUCAAGAUCCUCUGGUGCCAGUACCAGCAAAGGACCAAGGCAACAGAGGAUUGAGCAUCA
B16: chr8:103229222:103229323:+|3pUTR|ENSG00000164929|unk|total|mutant (ssRNA)
RNA: GGGAGUUCUACAGUCCGACGAUCUAAUUUUCCCGUAUGUCUUGAAACAUGUUCAUCUGGAAGUAUUUUCCUCCAAAGUAAUGCCGCAUGAUUUUUCAAGGAUUGUUAACAUGCCUGGGAUUGGGAAAGACCGGACUAAAGUUGCAACAGAGGAUUGAGCAUCA
B17: chr9:125236489:125236593:-|3pUTR|ENSG00000044574|msi1_unk|FALSE|overlapping (ssRNA)
RNA: GGGAGUUCUACAGUCCGACGAUCUGUAGACACUGAUCUGCUAGUGCUGUAAUAUUGUAAAUACUGGACUCAGGAACUUUUGUUAGGAAAAAAUUGAAAGAACUUAAGUCUCGAAUGUAAUUGGAAUCUUCACCUCAGAGUGGACAACAGAGGAUUGAGCAUCA
B18: chr8:22006364:22006465:+|3pUTR|ENSG00000130227|msi1|FALSE|unique (ssRNA)
RNA: GGGAGUUCUACAGUCCGACGAUCUGUUGCUGCUAGUUGUACACAUCUCUAGUUCAGCUCUUGCCCACGGGACACUCAUCAAUUAGGUUUUAUUUUUAUUUCUUUCCUCUACCCCCAGAAACAAGCCUGUUAAUUUUUUUUCCUCAACAGAGGAUUGAGCAUCA
B19: ENSG00000198589:be:win_2651|CDS|ENSG00000198589|bound_else_gene|NA|bound_elsewhere_windowed (ssRNA)
RNA: GGGAGUUCUACAGUCCGACGAUCAAAAGAUAACAGAAAUGGUAUACGCCAUAUUCAGAAUCCUGCUUUACCAUGCAGUCAAAUAUGAGUGGGGUGGCUGGCGUGUAUGGGUAGACACUUUAUCAAUCACUCAUUCAAAGGUCACAACAGAGGAUUGAGCAUCA
B20: chr1:45660322:45660423:-|5pUTR|ENSG00000159592|unk|FALSE|unique (ssRNA)
RNA: GGGAGUUCUACAGUCCGACGAUCUCCCCUUCCCCCCUUCCCCUUUUCCCCUUUCCCCUUUUGGAAACGUGUCAGGAACCAAAUAGUUUAAGAUGAGCAGUUGAGGGGACUGAGAGAGUGAUCGACACAGAACCUGGCUUCUUCCAACAGAGGAUUGAGCAUCA
B21: chr13:106491723:106491923:-|3pUTR|ENSG00000125266|msi1|total|mutant (ssRNA)
RNA: GGGAGUUCUACAGUCCGACGAUCCAGACUCAGCUGCUAUACUUAUCACAUUUUAUUAAACACAGGGAAAGCAUUCCGGAGAACCGCAGAGAGCCAAAUCUGACCUAAAAGUUGAAAAGCCAAAGGUCAAACAGGCUGUAAUUCCAACAGAGGAUUGAGCAUCA
B22: chr10:51697484:51697585:-|3pUTR|ENSG00000177613|unk|total|mutant (ssRNA)
RNA: GGGAGUUCUACAGUCCGACGAUCAAUGGGUGCAAAAAGCUGACUUCUGUAUCCCCACACUUGGAUCCGGGUUUCCCUCCUCCCCGAACCUAAUCUUAUUUUUUGUUCUUUUUCUUUCUUUCUGUUUUCCUUUUUUUUUUAAUUCAACAGAGGAUUGAGCAUCA

The binders below were run against T1, UNK ZnF1-6 (called full-length) (assay: nsRBNS (natural sequence RNA bind-n-seq); RBNS binding buffer (assumed for nsRBNS): 25 mM Tris pH 7.5, 150 mM KCl, 3 mM MgCl2, 0.01% Triton X-100, 500 ug/ml BSA, 20 U/ml SUPERase-In, 4 C; UNK is unkempt and MSI1 is Musashi-1; names of the RNAs are library labels; protein concentration not given here; high values mean tight binding).
Binder B1 has a binding signal of 0.984 enrichment R. B2 showed a binding signal of 0.776 enrichment R. B3 showed a binding signal of 0.79 enrichment R. With B4 the binding signal was 0.802 enrichment R. Work on B5 yielded a binding signal of 1.2 enrichment R. For B6, the binding signal was 0.858 enrichment R. B7 gave a binding signal of 0.567 enrichment R. Work on B8 yielded a binding signal of 2.11 enrichment R. With B9 the binding signal was 1 enrichment R. Work on B10 yielded a binding signal of 8.51 enrichment R. Binder B11 has a binding signal of 4.03 enrichment R. With B12 the binding signal was 0.853 enrichment R. In the case of B13, the binding signal is reported as 0.854 enrichment R. B14 was tested, and the binding signal was 0.53 enrichment R. With B15 the binding signal was 0.477 enrichment R. For B16, the binding signal was 0.36 enrichment R. Work on B17 yielded a binding signal of 5.52 enrichment R. B18 was tested, and the binding signal was 41.4 enrichment R. B19 was tested, and the binding signal was 0.84 enrichment R. Binder B20 has a binding signal of 0.765 enrichment R. Binder B21 has a binding signal of 1.05 enrichment R. With B22 the binding signal was 6.4 enrichment R.
